Over roughly 33,000 sequences, “E-score (-0.5 to 0.5)” has its median near -0.012; the highest 2% begin near 0.27. The list shows a part of the results.
Target: T1, Vhr1 (UniProt P40522)
T1 sequence: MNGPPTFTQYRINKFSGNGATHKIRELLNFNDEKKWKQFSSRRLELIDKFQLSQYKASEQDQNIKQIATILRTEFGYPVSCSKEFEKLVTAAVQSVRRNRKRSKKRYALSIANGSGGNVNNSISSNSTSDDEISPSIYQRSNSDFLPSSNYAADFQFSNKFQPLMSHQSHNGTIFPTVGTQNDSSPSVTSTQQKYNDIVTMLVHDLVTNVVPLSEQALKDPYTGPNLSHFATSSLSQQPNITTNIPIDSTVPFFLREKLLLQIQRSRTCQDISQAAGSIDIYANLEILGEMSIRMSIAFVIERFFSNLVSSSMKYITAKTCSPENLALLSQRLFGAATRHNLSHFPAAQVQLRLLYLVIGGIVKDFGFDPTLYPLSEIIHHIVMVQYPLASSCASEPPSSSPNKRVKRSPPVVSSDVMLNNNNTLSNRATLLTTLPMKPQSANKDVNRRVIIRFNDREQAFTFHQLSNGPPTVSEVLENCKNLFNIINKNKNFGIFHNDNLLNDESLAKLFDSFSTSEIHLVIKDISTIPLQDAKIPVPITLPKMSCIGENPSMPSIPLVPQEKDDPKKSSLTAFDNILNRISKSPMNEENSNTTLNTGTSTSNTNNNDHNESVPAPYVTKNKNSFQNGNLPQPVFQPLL
Test: PBM E-score (8-mer binding enrichment) (E-score (-0.5 to 0.5)); higher = stronger / more preferred TF binding; most listed sequences are background and not binding sites
Conditions: protein concentration: 200 nM; construct: GST-full length
Procedure, shortened: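 Masliner-normalised scans of fluorescent anti-GST signal were the basis for scoring. That signal came from GST-tagged yeast transcription factors applied at about 100-200 nM to double-stranded universal all-10-mer Agilent arrays on fresh or once-stripped slides. Each ungapped eight-base word, pooled with its reverse complement, received an E-score from the Universal PBM Analysis Suite.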

| Sequence | PBM E-score |
| --- | --- |
| AAATGTGC | 0.0346 |
| TGCGACCA | 0.165 |
| GGCTCCGA | 0.116 |
| CAGGGAAC | -0.0587 |
| AAGAACCA | -0.0565 |
| AATACGCT | -0.0796 |
| AATTCAGT | 0.0586 |
| AGCCAAAG | -0.142 |
| CGTGCAGA | -0.0877 |
| CCGTGTGA | 0.127 |
| TCTCGGAA | 0.0222 |
| AATTAAGG | -0.247 |
| CATTCGAG | -0.0634 |
| AACGCAAC | 0.16 |
| ACTAATAT | 0.255 |
| ATCGGTCG | 0.0274 |
| GGTCTACA | 0.0178 |
| AAAGCTCG | -0.18 |
| GTAAATGA | 0.106 |
| ATTCGGAC | 0.156 |
| GGCACCAA | 0.0843 |
| GATGTAGA | 0.0103 |
| ACATGAAA | -0.119 |
| CATATGGC | 0.124 |
| CAGATGGC | 0.0162 |

| Sequence | PBM E-score |
| --- | --- |
| GGTCACTA | -0.0218 |
| GTTGGTGA | 0.191 |
| ATTTGAGG | -0.161 |
| AATTACAT | 0.047 |
| CGGGACAA | -0.198 |
| CATTGCAG | 0.161 |
| CGACGGTA | -0.0689 |
| AGTTGACC | 0.103 |
| CCAGAGAC | 0.02 |
| GATTTCTA | -0.0567 |
| GCTAACCC | -0.0161 |
| CCCAGCAA | -0.0281 |
| ATAGCTAG | -0.0312 |
| CGAGAGGA | -0.0532 |
| GTCAAGGA | -0.0632 |
| CAACGCTA | -0.125 |
| CTTTGGGC | -0.0373 |
| CGCAACCA | 0.176 |
| ACGAATGG | 0.0938 |
| AATGCGCT | -0.104 |
| GTCGATAA | -0.0853 |
| AGATGGAC | -0.0243 |
| AAAGAAGT | -0.149 |
| ACTGAGCA | 0.00801 |
| CAACTTGA | 0.0256 |

| Sequence | PBM E-score |
| --- | --- |
| ATGGGGGA | -0.145 |
| GACTCATC | 0.452 |
| CAGGTGCC | -0.0882 |
| ACGCACGG | -0.0194 |
| ATTCGGTA | -0.172 |
| AAACCTAA | -0.0619 |
| ACAGGAAG | -0.0557 |
| GAAGAACA | -0.00385 |
| GAAGATTA | 0.123 |
| AACGAATT | -0.114 |
| TCATCACA | 0.123 |
| ACACAGCT | 0.127 |
| TAGGTGCA | -0.0582 |
| CCAACAAA | 0.0426 |
| CCGCTTTA | -0.16 |
| GCCCGAAA | -0.0862 |
| ATAGATTA | 0.0342 |
| CATCGCAG | 0.124 |
| GCCGTCCA | -0.114 |
| AGACGCTG | -0.00432 |
| GGGTGTTA | 0.218 |
| ATGACCGC | 0.108 |
| CTTTCCGA | -0.198 |
| CGCGAACA | 0.00318 |
| AATTGCTC | -0.178 |

| Sequence | PBM E-score |
| --- | --- |
| ACTGATCA | 0.172 |
| CACATTCG | 0.0327 |
| ATTACCGA | 0.115 |
| AGTCCACG | 0.118 |
| ATCGGTGA | 0.181 |
| AGATTATC | -0.149 |
| AATGCTCA | 0.021 |
| CCGTTATC | -0.151 |
| AGCGAAGG | -0.0123 |
| CTCCCTAA | -0.107 |
| GACGGAGC | -0.0703 |
| ACAATCAA | 0.0103 |
| CCCTAGCG | -0.146 |
| AACGACAA | 0.0611 |
| AAATGATG | 0.088 |
| GATGAGCC | 0.175 |
| CACGGGTC | -0.0331 |
| CGCCCCTC | 0.185 |
| GGATTCCA | 0.193 |
| GACGGTAC | -0.0962 |
| CACCATGA | 0.143 |
| ATCACATA | 0.19 |
| CAGATCTA | -0.0758 |
| ATGCAACG | -0.00087 |
| AGGTATGA | 0.163 |

| Sequence | PBM E-score |
| --- | --- |
| ACAACGTC | -0.215 |
| GGCTTCCA | -0.112 |
| ATGATAAC | 0.0602 |
| AGCAGGCT | -0.0486 |
| CCAGAACG | 0.115 |
| ACCGGTCA | -0.12 |
| ATCGCCCG | 0.0579 |
| CTTACATC | 0.00926 |
| GAGACGGA | 0.00065 |
| TACCGTGA | 0.133 |
| ACTGTCAA | -0.0135 |
| ATAGAGCG | -0.071 |
| CTTGAGTC | 0.333 |
| ATGGTGCA | -0.0579 |
| CTGACTTA | 0.187 |
| ACTTCTCT | -0.0892 |
| AATTGCCC | -0.0717 |
| AATGTACT | -0.0342 |
| CTAGTCCC | -0.0934 |
| TGACGGCA | -0.0485 |
| CAACAGAC | -0.0651 |
| CAGAAAAC | 0.0681 |
| GTCAACAC | 0.131 |
| ACGGCTCG | 0.0898 |
| CAGCTGTA | 0.0408 |

| Sequence | PBM E-score |
| --- | --- |
| CACCGGTA | 0.0399 |
| TATTCGAA | -0.245 |
| GTACGCAC | -0.061 |
| GAGTCCAA | 0.179 |
| CCATCGTC | 0.123 |
| CACTGGTA | 0.0975 |
| GGTACACC | -0.031 |
| AATAGAAT | -0.00178 |
| ATCACTAG | 0.204 |
| CACGTCGG | -0.188 |
| CAATCGGA | 0.058 |
| CCTGTACG | -0.0115 |
| AGTGTCGG | 0.166 |
| ATAAAAGC | -0.181 |
| AGTGGTTC | 0.116 |
| TTACCAAA | -0.0143 |
| GATGAGGC | -0.0851 |
| ACGTCAGT | -0.0497 |
| GACGTATA | -0.0619 |
| CACGCCAA | -0.0734 |
| ACGTTTTG | -0.136 |
| CGCGGTTA | 0.102 |
| GGCGAGCA | -0.029 |
| GTCTAAAA | -0.383 |
| CCGGTGAG | 0.0279 |

| Sequence | PBM E-score |
| --- | --- |
| GGATTGCA | 0.222 |
| AAAGGTGA | -0.00246 |
| GGGAGATA | -0.105 |
| CCGATCGC | -0.141 |
| AGAGAATC | 0.0515 |
| CGAACACA | 0.0995 |
| TCATCGAA | 0.0264 |
| AGTATGAT | 0.271 |
| GCCCGCGC | 0.186 |
| AATCGTCA | 0.0876 |
| CAGGCAGG | 0.0801 |
| ACCGTAGG | -0.255 |
| CACCCCTG | 0.0204 |
| AATCGTGA | 0.0588 |
| CGGCGACG | 0.0639 |
| CGCGTTAA | -0.0336 |
| CCTATCCG | -0.132 |
| AGAAAAGG | 0.086 |
| GATGATAC | 0.0656 |
| TACATACA | 0.228 |
| ATAAACGG | -0.0453 |
| GCTAATAA | -0.0618 |
